# Data as given in the supplement of paper PMC3334620.
# Whole data set: some 33,000 sequences, median “E-score (-0.5 to 0.5)” near -0.043, cut for the highest 2% near 0.37. Some of the results follow.
# Target: T1, Upc2 (UniProt Q12151)
# T1 sequence: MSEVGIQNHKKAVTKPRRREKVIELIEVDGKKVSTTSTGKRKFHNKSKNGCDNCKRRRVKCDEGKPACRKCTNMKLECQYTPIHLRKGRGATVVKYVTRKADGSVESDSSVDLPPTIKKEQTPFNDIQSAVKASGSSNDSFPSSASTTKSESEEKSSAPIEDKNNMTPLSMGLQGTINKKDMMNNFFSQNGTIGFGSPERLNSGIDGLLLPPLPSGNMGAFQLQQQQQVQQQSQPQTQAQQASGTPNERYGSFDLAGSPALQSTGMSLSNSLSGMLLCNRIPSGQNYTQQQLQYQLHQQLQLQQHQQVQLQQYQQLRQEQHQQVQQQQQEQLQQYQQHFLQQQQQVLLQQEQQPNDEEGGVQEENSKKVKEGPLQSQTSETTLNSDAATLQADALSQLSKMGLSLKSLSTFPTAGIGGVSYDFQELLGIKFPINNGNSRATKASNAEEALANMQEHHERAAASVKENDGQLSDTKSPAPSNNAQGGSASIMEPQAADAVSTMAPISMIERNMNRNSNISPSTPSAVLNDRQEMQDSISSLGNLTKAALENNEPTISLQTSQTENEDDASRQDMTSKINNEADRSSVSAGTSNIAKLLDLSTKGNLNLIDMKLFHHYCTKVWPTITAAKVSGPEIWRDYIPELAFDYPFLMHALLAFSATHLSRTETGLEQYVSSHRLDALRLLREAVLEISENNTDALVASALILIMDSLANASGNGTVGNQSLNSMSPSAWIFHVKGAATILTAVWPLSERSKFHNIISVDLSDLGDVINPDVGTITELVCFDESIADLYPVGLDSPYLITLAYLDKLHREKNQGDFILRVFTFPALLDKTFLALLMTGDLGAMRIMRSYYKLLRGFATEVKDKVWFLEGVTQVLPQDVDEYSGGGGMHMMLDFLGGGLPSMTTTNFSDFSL
# Assay: PBM E-score (8-mer binding enrichment) (E-score (-0.5 to 0.5)); higher = stronger / more preferred TF binding; most listed sequences are background and not binding sites
# Details: protein concentration: 200 nM; construct: GST-full length
# Method in brief: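 Each ungapped eight-base word and its reverse complement, pooled, received an E-score from the Universal PBM Analysis Suite. Underlying scans, normalised with masliner, recorded fluorescent anti-GST bound to GST-tagged yeast transcription factors. These were applied at about 100-200 nM to universal all-10-mer Agilent arrays double-stranded by primer extension.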
row,Sequence,PBM E-score
1,AGCGTAGA,-0.0587
2,AATCAGGA,-0.132
3,GCCAATAC,0.0787
4,ATCACATG,-0.0786
5,ACAACGGA,-0.14
6,ATACGAGG,0.487
7,AGCCGCGA,-0.0696
8,GGACGATA,-0.181
9,CGTCGCGC,-0.00532
10,ACTCGCCG,0.159
11,CATCCCGC,-0.114
12,GTACACCA,0.123
13,CAGACTCA,-0.0951
14,GGACAGAA,0.0328
15,GATTCCGA,-0.0286
16,AAACTAGT,0.0227
17,ATGAGCGC,0.0303
18,AAAGATTA,0.0277
19,CGCTCTTC,0.00916
20,AACTCGAA,-0.0619
21,AGCTCATC,-0.103
22,GACGGGCA,-0.0772
23,CGCAGTAC,0.101
24,TCGCCTAA,0.132
25,CCTAACAG,-0.0517

row,Sequence,PBM E-score
1,ACGTTATG,0.128
2,CATGGCTA,-0.0717
3,GCTTATTA,0.0294
4,ACCGTGAG,-0.137
5,CTAGATCA,-0.0293
6,TTAAGGAA,-0.0585
7,ACACGAAG,0.211
8,AGGAAAGG,-0.308
9,CGTTCAAC,0.382
10,CTTGCTGC,-0.249
11,GATGCAAC,-0.121
12,GATCTATA,0.229
13,ACCTGTCC,-0.104
14,CTGGCCAC,-0.22
15,CAAACCCG,0.0894
16,AGTTAGCC,-0.199
17,GGAACTGA,-0.0729
18,ACGGATAG,0.0992
19,ACGGCCGA,0.113
20,CAGCGTCG,0.104
21,ATGTAAGG,-0.101
22,CCAGAGCC,-0.118
23,CGCTTCTC,-0.0298
24,GACTAATA,0.0308
25,AGAATGCC,-0.122

row,Sequence,PBM E-score
1,TAGAAATA,0.0621
2,AGTGAACA,-0.0568
3,TGGTCGAA,-0.151
4,GATTTGTA,-0.159
5,CGCTTTAG,0.115
6,GTTGTTGA,-0.0225
7,GCAGGACC,-0.203
8,CCACTATA,0.0765
9,GTTTCCGA,0.176
10,CCCATTCG,0.0753
11,GCCGGAGC,-0.108
12,GAAATGAC,-0.0962
13,AATTTTGC,0.0129
14,AAGCCCTG,-0.233
15,AATATGCG,0.169
16,CCTATTAG,-0.201
17,CCCCATAA,-0.161
18,CAGCATCG,-0.0921
19,AGGGATTC,-0.139
20,CGCTGGCA,-0.205
21,CCATATGC,0.167
22,CGTCGTAA,0.457
23,CACAGATC,-0.161
24,AATGGGTC,-0.193
25,CCGATCCC,-0.22

row,Sequence,PBM E-score
1,GCGCCATA,-0.0194
2,AGTTTGCA,-0.0759
3,AAATGCAG,-0.0984
4,TCTTGCCA,-0.303
5,TCAGGGAA,-0.0302
6,CAACTTCC,0.0137
7,ACCTAGTG,-0.116
8,AGAGACTA,0.0121
9,CACAGCTC,-0.171
10,AAGATTGG,-0.0467
11,GGCACGAC,-0.0971
12,AAATTCTG,-0.113
13,ACCGACGT,0.238
14,ATCTACTG,-0.0785
15,GCACGTTA,0.182
16,CATGTGGG,-0.251
17,CACAGTGA,-0.0917
18,AACGGTTC,0.166
19,AAAGACAA,-0.117
20,ACCTGTTC,0.115
21,CCGGCAAA,-0.0642
22,AGCACAAT,-0.0573
23,ACACCATC,-0.205
24,GTAATAAA,0.199
25,GTCAGTTA,-0.206

row,Sequence,PBM E-score
1,CATGTTTA,0.118
2,CCCAGGCG,-0.257
3,CTCTTCTC,-0.306
4,CATTCACA,-0.114
5,ACTTGCTC,-0.149
6,ACCATAAT,0.0536
7,TATGAAGA,-0.105
8,GCATTTTA,0.0992
9,AAGCAATT,-0.0358
10,AGATGTGA,0.0909
11,CATCGACC,-0.268
12,GAATGATA,0.0972
13,AAAACTCA,-0.0631
14,ACGGCACT,0.0539
15,CGTGTGAG,0.0442
16,GCTGTTAA,0.0878
17,CAGTGACG,-0.0661
18,ACGCGTTG,0.143
19,CCGTCCTA,-0.255
20,ACAGCTAT,-0.0224
21,GTACCAAC,0.0659
22,ATCGAAAC,0.108
23,GCCTAAAA,-0.113
24,CCTGCGCA,-0.215
25,CAGGCCCA,-0.0949

row,Sequence,PBM E-score
1,ACGCTGAC,0.0482
2,CTTACGCC,0.0225
3,ATCGGGTA,0.00096
4,TACATCGA,0.038
5,CCAGTTCG,-0.0466
6,AGGAATCC,-0.273
7,ACTCCTTG,-0.0918
8,AAATACGA,0.449
9,ACGCTACC,-0.0535
10,ATTTTATC,0.0665
11,AGAGGCCC,-0.291
12,AGCGATTC,0.181
13,GCCAACCC,-0.246
14,GAGGTTAA,-0.188
15,ATCGTGAC,-0.0435
16,CAATTACC,0.0038
17,ATTCTCGA,0.0918
18,GCTTAGTA,0.00514
19,CCATAGTA,-0.0892
20,AGTGAACG,0.316
21,CTGCTACC,-0.161
22,AACTAAAC,0.227
23,CGCCGGAG,0.113
24,ATCTAAAT,0.0488
25,CTTCGGTC,0.0609

row,Sequence,PBM E-score
1,CTTTCGCA,0.00441
2,CACGAGGC,0.116
3,CGGCAAAA,-0.0987
4,CGGTCGTA,0.442
5,GCAAAAGC,0.0231
6,GGGGTCCA,-0.0568
7,ACGAGGCA,0.408
8,CAAGGTAG,-0.195
9,GCCATCGA,-0.0658
10,CAGGAGGC,-0.265
11,AATGAGCT,-0.163
12,ATCGCAAC,0.0638
13,AATATGCA,-0.0358
14,ATCAGACC,-0.154
15,GATGTAGC,-0.023
16,GGAAGTCC,-0.256
17,CTGATTCA,-0.199
18,CAGTTGGA,-0.0009
19,GACTATCA,-0.0406
20,CGTCGATA,-0.028
21,ATCAAAAC,0.0147
22,AAAGGCTC,0.0968
23,ACCTCTTA,0.203
24,TCTCACAA,-0.0538
25,ATGTTAAA,-0.0134

row,Sequence,PBM E-score
1,CATTGCCC,-0.205
2,ACGGATGG,0.254
3,ACGAGGGC,0.388
4,GCCTCATA,-0.0561
5,AGTAATCC,-0.0662
6,AGGGCGAG,-0.142
7,GAAGAGTC,0.0491
8,CCCTGATA,-0.148
9,CGGTAAAG,0.223
10,CTGGACCC,-0.211
11,ACGATCTA,0.245
12,ACTCAAGC,-0.298
13,GATCGCAC,0.123
14,ACTGGTCG,-0.0543
15,GACAGCAA,-0.127
16,CGACCACC,-0.0258
17,GATGTTTA,0.0725
18,ATAATAGA,-0.0332
19,CCACCACC,-0.0443
20,AATTGAAT,-0.168
21,CTACCACC,-0.134
22,GTGACCCA,-0.193
23,CGTGCACG,0.134
24,ATCCGCGG,-0.0584
25,AATAACGA,0.16

row,Sequence,PBM E-score
1,CGATACCC,0.231
2,AGTGTTCG,0.182
3,AGACAGGC,-0.061
4,AAGGTCCT,-0.0749
5,ATACACGA,0.261
6,AATCGAGT,0.0695
7,CATACATA,0.0825
8,CACATAGA,-0.091
9,ACAGATCA,-0.113
10,GGCGTGGA,-0.294
11,CACTCTCA,-0.103
12,GAAATTAA,0.107
13,CCTTACGA,0.407
14,ATCTCTAA,-0.0535
15,TCATAACA,0.0608
16,ATTTATCC,0.174
17,TAAAATTA,0.0481
18,AGAACCCG,0.0767
19,CAAGCAGG,-0.258
